Screen size: about 330,000 compounds; about 4,200 (1.3%) were called active. The inconclusive results got no clear call from the source; some entries with a clear call stand among them for comparison. Calls come from the whole dose curve; as a rule, active = well fitted activation curve with a large enough effect; inconclusive = small, poorly fitted or top-dose-only effect; inactive = no such curve, though single readings can be large or run the other way. Potencies beside an inconclusive call are fits to weak or partial responses and may not hold up.
Experiment: qHTS screen for small molecules that induce genotoxicity in human embryonic kidney (HEK293T) cells expressing luciferase-tagged ELG1; note: nearly all actives have a fitted effect of over 60% in size; for activity change, positive = activation: % of control where 0% means no effect
Settings: HEK293T ELG1-luciferase reporter, luminescence, 16 h; series mostly up to 46 µM; activity change, positive = activation: at the top concentration
In short: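 Cells (2,000/well) expressing the ELG1-luciferase fusion are dosed by pin tool and kept 16 hr at 37 °C, 5% CO2. Signal comes from ONE-Glo luciferase reagent after 30 min at room temperature.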
Potency is the fitted concentration of half-maximal effect; tags give direction and shape of the fitted curve.

Q: Which Potency does the source give for O=C(NCCOc1ccccc1Cl)c1cc(F)c(F)cc1Cl here?
A: inconclusive: 4.11 µM [activator, partial curve]

Q: With CCCCN(C(=O)CSc1n[nH]c(-c2ccc(C)cc2)n1)c1c(N)n(CCCC)c(=O)[nH]c1=O as the compound, how does the Potency read?
A: inconclusive: 20.6 µM [activator, single point]

Q: Which Potency does the source give for COc1ccc2c(c1)sc1nc(-c3ccccc3)cn12 here?
A: inconclusive: 0.058 µM [activator, full curve]

Q: With COc1ccc(-c2c(-c3ccc(O)cc3O)n[nH]c2C(F)(F)F)cc1 as the compound, how does the “activity change, positive = activation” value read?
A: inactive: 0.596%

Q: With CCOC(=O)c1ccc(NS(=O)(=O)c2ccc(Cl)nc2)cc1 as the compound, how does the “activity change, positive = activation” value read?
A: inactive: 0.146%

Q: Which Potency does the source give for N/C(=N\OC(=O)c1ccccc1F)c1cccc([N+](=O)[O-])c1 here?
A: inconclusive: 9.2 µM [activator, partial curve, poor fit]

Q: With Cc1c(/C=C/C(=O)c2ccc(C(C)C)cc2)cnn1C as the compound, how does the Potency read?
A: inconclusive: 20.6 µM [activator, partial curve, poor fit]

Q: With CCOC(=O)c1csc(N)n1 as the compound, how does the Potency read?
A: inconclusive: 16.4 µM [activator, partial curve]

Q: Which Potency does the source give for O=C1CCCC/C1=C/Nc1ccc2c(c1)OCO2 here?
A: inconclusive: 23.1 µM [activator, single point]

Q: Which Potency does the source give for Cc1ccc(-n2nnc(-c3cccnc3Cl)n2)cc1 here?
A: active: 5.8 µM

Q: With Cc1cc(C)c[n+](C(C)C(=O)c2ccc(Cl)cc2)c1 (centres undefined) as the compound, how does the “activity change, positive = activation” value read?
A: inactive: -3.04%

Q: With COC(=O)Nc1ccc(Oc2ccccc2)cc1 as the compound, how does the Potency read?
A: inconclusive: 18.4 µM [activator, single point]

Q: Which Potency does the source give for COc1ccc2occ(C(=O)c3ccc(N)cc3)c2c1 here?
A: inconclusive: 2.06 µM [activator, full curve, poor fit]

Q: Which Potency does the source give for O=C(Nc1nc2c(F)c(F)c(F)cc2s1)c1ccco1 here?
A: inconclusive: 5.8 µM [activator, full curve]

Q: For CN(C)c1ccc(/C=N/Nc2cccc(C(=O)O)c2)cc1, which Potency is on record?
A: inconclusive: 0.082 µM [activator, full curve, poor fit]

Q: With Cc1csc(NC(=O)c2cncc(Br)c2)n1 as the compound, how does the Potency read?
A: inconclusive: 1.64 µM [activator, partial curve, poor fit]

Q: For C(=N\NCc1ccccc1)/c1ccc2ncccc2c1, which Potency is on record?
A: active: 2.59 µM

Q: Which Potency does the source give for COc1ccc(NC2CCCN(C(=O)CN3CCOC3=O)C2)cc1 (centres undefined) here?
A: inconclusive: 18.3 µM [activator, single point]

Q: For CC/C(=N\NC(=O)c1ccoc1C)c1ccc(C)o1, which Potency is on record?
A: inconclusive: 20.6 µM [activator, single point]

Q: With CC(=O)n1nc(-c2ccc(C)cc2)nc1NCc1ccco1 as the compound, how does the Potency read?
A: inconclusive: 18.3 µM [activator, partial curve]

Q: With CSc1ccc(-c2cc(=O)c3ccccc3o2)cc1 as the compound, how does the Potency read?
A: active: 9.2 µM

Q: With COc1cc2c(cc1OC)C(c1cc3cc4c(cc3[nH]c1=O)OCO4)N(C(=O)C1CC1)CC2 (centres undefined) as the compound, how does the Potency read?
A: inconclusive: 25.9 µM [activator, partial curve, poor fit]

Q: Which Potency does the source give for COc1ccccc1OCc1cc(C(=O)N2CCN(C)C(c3ccccc3)C2)no1 (centres undefined) here?
A: inconclusive: 25.9 µM [activator, partial curve, poor fit]

Q: With CCCCc1c(C)nc2cc(-c3ccco3)[nH]n2c1=O as the compound, how does the Potency read?
A: inconclusive: 23.1 µM [activator, partial curve, poor fit]

Q: With C/C(Cl)=C/Cn1c(N2CCCC2)nc2c1c(=O)n(C)c(=O)n2C as the compound, how does the “activity change, positive = activation” value read?
A: inactive: -6.11%

Q: Which Potency does the source give for COc1ccc(-c2nc(NCCCN(C)C)c3ccccc3n2)cc1 here?
A: inconclusive: 23.1 µM [activator, partial curve, poor fit]

Q: For CCOc1ccc(CNC(=S)N/N=C\c2ccc([N+](=O)[O-])cc2)cc1, which Potency is on record?
A: inconclusive: 9.2 µM [activator, partial curve]

Q: With O=C(COc1ccccc1[N+](=O)[O-])Nc1cccnc1 as the compound, how does the Potency read?
A: inconclusive: 20.6 µM [activator, partial curve, poor fit]

Q: With CCOC(=O)c1ccc(NC(=O)N(CC)CC)cc1 as the compound, how does the Potency read?
A: active: 16.4 µM

Q: With COc1ccc(/C=C2\SC(=S)N(CC(=O)OCC(=O)Nc3ccc([N+](=O)[O-])cc3OC)C2=O)cc1 as the compound, how does the “activity change, positive = activation” value read?
A: inactive: 2.84%

Q: For CCN(C(=O)COC(=O)/C=C/c1cccc([N+](=O)[O-])c1)c1ccccc1, which “activity change, positive = activation” value is on record?
A: inactive: 0.849%

Q: For Cc1ccc(/C=N/NC(=O)Cc2c(F)cccc2Cl)s1, which Potency is on record?
A: inconclusive: 13 µM [activator, partial curve, poor fit]

Q: For COc1ccc(CCNC(=O)c2sc3cc(C)ccc3c2Cl)cc1, which “activity change, positive = activation” value is on record?
A: inactive: 0.236%

Q: For CCCCOc1ccc(CSCCN=C(N)N)cc1, which Potency is on record?
A: active: 14.6 µM

Q: For O=C(CS(=O)(=O)c1ccc(F)cc1)N1CCN(c2ccccc2)CC1, which Potency is on record?
A: inconclusive: 25.9 µM [activator, partial curve, poor fit]

Q: For COc1ccc(C(=O)Nc2cccnc2Sc2ccc(Cl)cc2)cc1, which “activity change, positive = activation” value is on record?
A: inactive: 4.29%

Q: Which Potency does the source give for CCOc1ccc(NC(=O)Cc2ccccc2)cc1 here?
A: inconclusive: 14.6 µM [activator, partial curve]

Q: For CCN(CC)c1ccc(C=Nc2ccc(N(C)C)cc2)c(O)c1, which Potency is on record?
A: active: 13 µM

Q: For O=C(Nc1cccc2nsnc12)C1CC(=O)N(c2ccccc2)C1 (centres undefined), which Potency is on record?
A: inconclusive: 23.1 µM [activator, single point]

Q: Which Potency does the source give for COc1cc(OC)cc(C(=O)Oc2ccc(/C=N/Nc3nc4ccccc4s3)cc2OC)c1 here?
A: inconclusive: 5.8 µM [activator, full curve]

Q: With CN1C(=O)Nc2cccc3cccc1c23 as the compound, how does the Potency read?
A: inconclusive: 14.6 µM [activator, partial curve, poor fit]

Q: For CC(C)Sc1nnc(NC(=O)c2ccco2)s1, which Potency is on record?
A: inconclusive: 14.6 µM [activator, partial curve]

Q: For O=C(/C=C/c1cccc([N+](=O)[O-])c1)N1CCN(c2ccccn2)CC1, which Potency is on record?
A: inconclusive: 4.61 µM [activator, partial curve, poor fit]

Q: For CCCCC(=O)Nc1ccc(Br)cn1, which “activity change, positive = activation” value is on record?
A: inactive: 19.4%

Q: With O=c1nc2sc3ccccc3n2c(=O)n1-c1ccc(Cl)cc1 as the compound, how does the Potency read?
A: inconclusive: 5.8 µM [activator, partial curve, poor fit]

Q: For O=C(c1ccc(F)cc1)N1CCOC(c2nc(-c3ccc(F)cc3)no2)C1 (centres undefined), which Potency is on record?
A: inconclusive: 10.3 µM [activator, partial curve, poor fit]

Q: Which “activity change, positive = activation” value does the source give for COc1ccc(C(CNC(=O)c2cccc(S(=O)(=O)N3CCOCC3)c2)N2CCCC2)cc1 (centres undefined) here?
A: inactive: 3.67%

Q: With CN(c1ccccc1)c1ccc(/C=C/[N+](=O)[O-])cc1 as the compound, how does the “activity change, positive = activation” value read?
A: inactive: -5.98%

Q: With CN(C)c1nc(N)nc(-c2nc3ccccc3s2)n1 as the compound, how does the Potency read?
A: active: 3.26 µM

Q: For CCCCN(CC)C(=O)Cc1ccc(Br)cc1, which “activity change, positive = activation” value is on record?
A: inactive: -0.902%

Q: With CC(C)(C)c1ccc(C(=O)Cn2cnnc2C#N)cc1 as the compound, how does the “activity change, positive = activation” value read?
A: inactive: 2.91%

Q: With COc1cccc(OCc2cc(C(=O)NCc3ccccn3)no2)c1 as the compound, how does the Potency read?
A: active: 16.4 µM

Q: With N=c1oc2c3c4c(cc2cc1C(=O)Nc1ccccc1)CCCN4CCC3 as the compound, how does the Potency read?
A: inconclusive: 4.61 µM [activator, partial curve]

Q: For COc1ccc(CNC(=O)CN(C(=O)CCC(=O)Nc2nccs2)c2ccc3c(c2)OCO3)cc1, which “activity change, positive = activation” value is on record?
A: inactive: 4.57%

Q: Which “activity change, positive = activation” value does the source give for COc1cc(/C=N/Nc2nc(N3CCCC3)nc(N3CCCC3)n2)ccc1O here?
A: inactive: -9.23%

Q: Which Potency does the source give for Cc1cc(NC(=O)CSc2nc(C(C)C)nc3sc4c(c23)CCC(C)C4)no1 (centres undefined) here?
A: inconclusive: 11.6 µM [activator, partial curve, poor fit]

Q: With COc1ccc(C(=O)N/C(=C\c2ccc3c(c2)OCO3)C(=O)NCCc2nc3ccccc3[nH]2)cc1 as the compound, how does the “activity change, positive = activation” value read?
A: inactive: -1.34%

Q: Which Potency does the source give for Clc1ccccc1OCCCOc1cccc2cccnc12 here?
A: inconclusive: 18.3 µM [activator, partial curve, poor fit]

Q: With Cc1cc(Cl)c2oc(C(=O)N(C)C(C)c3ccccn3)c(C)c2c1 (centres undefined) as the compound, how does the Potency read?
A: inconclusive: 20.6 µM [activator, partial curve]

Q: Which “activity change, positive = activation” value does the source give for Cc1nc(-c2ccccn2)sc1C(=O)Nc1ccc(F)cc1 here?
A: inactive: 1.02%

Q: Which Potency does the source give for Cc1cc(NC(=O)COc2ccccc2)ccc1Cl here?
A: inconclusive: 23.1 µM [activator, partial curve, poor fit]

Q: For OC[C@H]1O[C@@H](n2cnc3c(Nc4ccccc4)ncnc32)[C@H](O)[C@@H]1O, which Potency is on record?
A: inconclusive: 23.1 µM [activator, single point]

Q: With COc1cccc(C(=O)Oc2ccccc2/C=C\C(=O)c2cc3ccccc3o2)c1 as the compound, how does the “activity change, positive = activation” value read?
A: inactive: 15.9%

Q: For CC1CCCN(c2ccc(C(=O)NCc3cccs3)cn2)C1 (centres undefined), which Potency is on record?
A: inconclusive: 18.4 µM [activator, partial curve]

Q: With Cc1cc(NC(=O)c2cnn3c(C(F)F)cc(-c4ccccc4)nc23)no1 as the compound, how does the “activity change, positive = activation” value read?
A: inactive: -8.38%

Q: Which “activity change, positive = activation” value does the source give for Cc1ccnc(NS(=O)(=O)c2ccc(NC(=O)CSc3nc(-c4ccccc4)cc(=O)[nH]3)cc2)n1 here?
A: inactive: 0.558%

Q: Which Potency does the source give for C/C(=C\c1ccc(C(=O)O)cc1)c1ccc2c(c1)C(C)(C)CCC2(C)C here?
A: inconclusive: 20.6 µM [activator, partial curve, poor fit]

Q: With N/C(=N\N=C\c1ccc([N+](=O)[O-])cc1)c1nonc1N as the compound, how does the Potency read?
A: active: 5.17 µM

Q: Which Potency does the source give for CCOC(=O)Cc1csc(NC(=O)c2sc3nc4ccc(CC)cc4cc3c2N)n1 here?
A: inconclusive: 23.1 µM [activator, single point]

Q: With O=[N+]([O-])c1ccccc1N/N=C/c1c[nH]c2ccccc12 as the compound, how does the Potency read?
A: active: 4.11 µM

Q: Which Potency does the source give for COC(=O)C1=C(C)N(C)C(C)=C(C(=O)OC)C1c1ccncc1 here?
A: inconclusive: 16.4 µM [activator, partial curve, poor fit]

Q: With O=C(Nc1ccccn1)c1cc(-c2cccc(Cl)c2)nc2ccccc12 as the compound, how does the “activity change, positive = activation” value read?
A: inactive: -15.3%

Q: For COc1ccc(NC(=O)c2ccc3c(c2)n(C)c(=O)n3C)cc1, which Potency is on record?
A: inconclusive: 18.4 µM [activator, single point]

Q: With CC(=O)OCCCN1C(=O)c2cccc3cc(Br)cc(c23)C1=O as the compound, how does the “activity change, positive = activation” value read?
A: inactive: 2.37%

— PubChem BioAssay AID504466 (National Center for Advancing Translational Sciences (NCATS), 2011)
